# Out of some 200,000 compounds screened, about 4,500 (2.2%) were called active. The inconclusive results got no clear call from the source; some entries with a clear call stand among them for comparison. Calls come from the whole dose curve; as a rule, active = well fitted inhibition curve with a large enough effect; inconclusive = small, poorly fitted or top-dose-only effect, or effect the other way; inactive = flat fitted curve, though single readings scatter. Where the call is inconclusive, the potency comes from a doubtful curve fit.
# Target: Cruzipain (Trypanosoma cruzi) (UniProt P25779)
# Chain of UniProt P25779 (P25779 whole entry, looked up): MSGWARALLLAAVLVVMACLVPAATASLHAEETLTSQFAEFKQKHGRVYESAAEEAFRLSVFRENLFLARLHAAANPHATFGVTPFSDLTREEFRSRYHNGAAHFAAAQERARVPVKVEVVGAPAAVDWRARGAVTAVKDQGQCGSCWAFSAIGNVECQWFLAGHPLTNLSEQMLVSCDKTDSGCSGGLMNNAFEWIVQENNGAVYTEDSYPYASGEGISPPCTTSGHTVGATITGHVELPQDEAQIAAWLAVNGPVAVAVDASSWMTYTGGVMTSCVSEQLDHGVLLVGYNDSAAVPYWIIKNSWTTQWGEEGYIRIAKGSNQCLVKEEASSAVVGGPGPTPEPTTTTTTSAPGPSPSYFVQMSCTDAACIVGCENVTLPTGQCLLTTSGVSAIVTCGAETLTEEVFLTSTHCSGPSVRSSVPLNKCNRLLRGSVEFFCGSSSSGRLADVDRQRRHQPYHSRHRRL
# Assay: qHTS Assay for Promiscuous and Specific Inhibitors of Cruzain (without detergent); note: nearly all actives have a fitted effect of over 40% in size;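 for max response, negative = inhibition: plate controls were enzyme without inhibitor for no effect and buffer without enzyme for full effect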
# Conditions: purified cruzain, Z-FR-AMC fluorescence, no detergent
# Summary of the method: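 Purified cruzain at 1.5 nM, pre-incubated 15 min with compound at room temperature in 100 mM sodium acetate pH 5.5, 5 mM DTT, 0.00005% Triton X-100. Reaction started with 2 uM Z-FR-AMC; AMC fluorescence increase over 60 s gives rate.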
# Potency is the fitted concentration of half-maximal effect; tags give direction and shape of the fitted curve.
SMILES,Potency,"max response, negative = inhibition"
CCCCOC(=O)Nc1nnc(SCCOc2ccc(C)cc2)s1,"inconclusive: 39.8 µM [inhibitor, single point]",
Cc1cc(OCc2ccc(C(=O)n3cccn3)o2)ccc1Cl,"inconclusive: 20 µM [inhibitor, partial curve]",
CC(C)CNC(=O)COC(=O)c1ccc([N+](=O)[O-])cc1Cl,,inactive: -10.1%
C=CCOc1cccc(C2/C(=C(/O)c3ccc(C)cc3)C(=O)C(=O)N2CCN2CCOCC2)c1 (configuration not stated),"inconclusive: 39.8 µM [activator, single point]",
Cc1ccc(O)c(/C=N/NC(=O)C2=NNC(c3ccccc3)(c3ccccc3)C2)c1,active: 12.6 µM,
CCOC(=O)C1CCN(C(=O)Nc2ccc3nc(-c4ccco4)c(-c4ccco4)nc3c2)CC1,"inconclusive: 2 µM [inhibitor, partial curve]",
CCCCNC(=O)CCC(=O)NNc1nc2ccccc2c2nc(-c3ccccc3)nn12,"inconclusive: 39.8 µM [activator, single point]",
COc1ccc(/C=N/Nc2nc(NCc3ccco3)nc(Nc3ccc(OC)cc3)n2)cc1,"inconclusive: 39.8 µM [inhibitor, single point]",
Cc1cc(C(=O)CSc2nnc(-c3ccco3)o2)c(C)n1-c1ccc2c(c1)OCCO2,active: 10 µM,
COc1ccc(OCC(=O)NCC2(N3CCN(C)CC3)CCCCC2)cc1,,inactive: -8.8%
O=S(=O)(Nc1ccc(-c2csc(-c3ccccc3)n2)cc1)c1ccc(F)cc1,"inconclusive: 39.8 µM [inhibitor, single point]",
CCN1CCN(C(=O)NC(C(=O)NC2C(=O)N3C2SC(C)(C)C3C(=O)O)c2ccccc2)C(=O)C1=O (configuration not stated),"inconclusive: 31.6 µM [activator, single point]",
CCOc1cc(C(=O)Nc2ccc3oc(-c4ccc(F)cc4Cl)nc3c2)cc(OCC)c1OCC,,inactive: 3.65%
COc1ccccc1Nc1nn2c(=O)c3ccc(C(=O)N4CCC(C)CC4)cc3nc2s1,"inconclusive: 25.1 µM [activator, partial curve]",
COc1ccccc1CNC(=O)CC1N=C2c3ccccc3N=C(SCC(=O)Nc3ccc(F)cc3)N2C1=O (configuration not stated),"inconclusive: 39.8 µM [activator, single point]",
COc1ccc(CNC(=O)c2ccc(CNc3c(NC4CCCCC4)c(=O)c3=O)cc2)cc1,"inconclusive: 39.8 µM [inhibitor, single point]",
Cc1ccc(N(CC(=O)NCc2ccco2)C(=O)CCC(=O)Nc2ccccn2)cc1C,"inconclusive: 6.31 µM [inhibitor, single point]",
O=C(CCn1cnc2onc(-c3ccc(F)cc3)c2c1=O)N1CCN(c2ccc(F)cc2)CC1,"inconclusive: 12.6 µM [activator, partial curve]",
O=c1c2ccccc2c2c(O)nc(-c3ccccc3)n2n1Cc1ccccc1,active: 3.98 µM,
Cc1ccccc1NC(=O)c1c(NC(=O)C(C)Oc2cccc(Cl)c2)sc2c1CCCC2 (configuration not stated),"inconclusive: 6.31 µM [inhibitor, single point]",
O=C(NCc1ccc(F)cc1)C(=O)Nc1nc(C23CC4CC(CC(C4)C2)C3)cs1,"inconclusive: 6.31 µM [activator, single point]",

SMILES,Potency,"max response, negative = inhibition"
CCc1c(C)sc2c1CCN(C(=O)Nc1ccccc1C(F)(F)F)C2c1ccccc1 (configuration not stated),,inactive: -12.2%
CCOc1ccccc1NC(=O)Nc1nnc(N(C)Cc2ccccc2)s1,,inactive: 0.41%
CCc1ccc(NC(=O)CC2C(=O)N(c3cccc(OC)c3)C(=O)N2Cc2ccco2)cc1 (configuration not stated),,inactive: 9.58%
COc1ccc(N2CCN(C(=O)c3ccc(S(=O)(=O)N4CCOCC4)cc3)CC2)cc1,"inconclusive: 39.8 µM [activator, single point]",
O=C(Nc1nc2ccccc2s1)C1c2ccccc2Oc2ccccc21,"inconclusive: 39.8 µM [inhibitor, single point]",
O=C(COC(=O)c1ccc(Cl)c(S(=O)(=O)N2CCN(c3ccc(F)cc3)CC2)c1)Nc1cccc(Cl)c1,active: 12.6 µM,
COCCn1c(=O)cnc2cnc(Oc3ccccc3)nc21,,inactive: 1.14%
Cc1ccc(/C=C/c2onc(C)c2S(=O)(=O)N2CCC(C(=O)N3CC(C)Oc4ccccc43)CC2)cc1 (configuration not stated),,inactive: -1.79%
COc1ccc(-c2nc(CS(=O)CC(=O)NCc3ccc(F)cc3)c(C)o2)cc1OC (configuration not stated),,inactive: -0.962%
O=[N+]([O-])c1ccc(O)c(N=Cc2sc3ccccc3c2O)c1,active: 12.6 µM,
c1cncc(-c2nc(N3CCNCC3)c3ccccc3n2)c1,,inactive: 0.953%
Cc1cccc(S(=O)(=O)Nc2cccc(-c3cn4ccsc4n3)c2)c1,"inconclusive: 39.8 µM [inhibitor, single point]",
CCc1ccc(-n2c(SC(CC)C(=O)N(CC)CC)nc3n[nH]c(C)c3c2=N)cc1 (configuration not stated),"inconclusive: 39.8 µM [activator, single point]",
O=C(CSc1nc(-c2ccccc2)nc2c1Cc1ccccc1O2)Nc1ccccc1,active: 25.1 µM,
Cc1c(C)n(Cc2ccccc2)c2ccc(C(=O)NC(C)c3ccccc3)cc12 (configuration not stated),"inconclusive: 31.6 µM [inhibitor, single point]",
CCOC(=O)c1ccc(N2CCN(c3cc(Cl)ccc3C)CC2)c(NC(=O)Nc2cccc(OC)c2)c1,"inconclusive: 3.16 µM [inhibitor, full curve, poor fit]",
CC1=CSC2=NC(=O)/C(=C\c3cccn3-c3ccccc3)C(=N)N12,active: 12.6 µM,
O=C(NC1CCCCC1)NC1CCN(S(=O)(=O)c2ccc3c(c2)OCCO3)CC1,"inconclusive: 31.6 µM [inhibitor, single point]",
CCOC(=O)c1c(-c2ccc(OC)cc2)oc2ccc(OC(=O)N(C)C)cc12,"inconclusive: 31.6 µM [activator, partial curve]",
COc1ccc(-c2nc3nc(C)cc(C)n3n2)cc1,,inactive: 7.69%
Cc1cc2oc(=O)c(CC(=O)NCCc3ccccc3)c(C)c2c2occ(C(C)(C)C)c12,"inconclusive: 39.8 µM [inhibitor, single point]",
